According to PubChem BioAssay AID894 (National Center for Advancing Translational Sciences (NCATS), 2007):
Several values for one entry are separate records, joined by “and”; a condition that tells them apart may be missing. Equal entries are not always repeated. The campaign covered roughly 150,000 compounds. About 6,500 (4.3%) were called active. Inconclusive results, whose numbers are uncertain, are shown with a selection of clear calls. The call rests on the fitted dose curve; in most records, active means well fitted inhibition curve with a large enough effect (not every such curve was filed as active); inconclusive means small, poorly fitted or top-dose-only effect, or another doubt; inactive means no such curve, though single readings can be large or run the other way. Potencies beside an inconclusive call are fits to weak or partial responses and may not hold up.
On the % scale 0 is the no-effect control and ±100 the full control effect; potency means the concentration at half of the fitted maximal effect; tags describe the fitted curve by direction and shape.

The compounds below were run against 15-hydroxyprostaglandin dehydrogenase [NAD(+)] (Homo sapiens) (UniProt P15428) (assay: qHTS Assay for Inhibitors of HPGD (15-Hydroxyprostaglandin Dehydrogenase)). Details: purified HPGD, NADH fluorescence kinetic, PGE2 substrate; activity change, negative = inhibition: active compounds read low.
UniProt P15428, sequence (P15428 whole entry, looked up): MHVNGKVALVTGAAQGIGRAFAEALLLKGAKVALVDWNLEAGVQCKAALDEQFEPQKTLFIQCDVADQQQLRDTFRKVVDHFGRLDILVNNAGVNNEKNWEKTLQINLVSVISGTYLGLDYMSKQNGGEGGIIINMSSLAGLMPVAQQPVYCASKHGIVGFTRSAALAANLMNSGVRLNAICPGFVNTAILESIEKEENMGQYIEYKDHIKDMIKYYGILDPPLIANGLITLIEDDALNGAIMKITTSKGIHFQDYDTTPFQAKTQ
Method in brief: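 NADH formation kinetics: reaction with 30 uM PGE2 and 1 mM NAD+ (final), 20 nM enzyme, Tris-HCl pH 8 with Tween 20, after 15 min compound preincubation at room temperature. Fluorescence change, last versus first of five reads.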
In the case of `Cc1ccc(-n2c(O)c(/C=N/n3cnnc3)c3ccccc3c2=O)cc1`, the Potency is reported as inconclusive: 28.2 µM [inhibitor, single point] and inconclusive: 22.4 µM [inhibitor, partial curve]. `COc1ccc(OC)c(/C=C/C(=O)OCC(=O)Nc2ccc3c(c2)OCCO3)c1` was tested, and the Potency was inconclusive: 8.91 µM [inhibitor, partial curve]. `CC(=O)NC1C(=O)N(CCc2ccccc2)c2ccc(Br)cc21` (centres undefined) was tested, and the activity change, negative = inhibition was inactive: -15.3%. In the case of `CCOC(=O)c1c(NC(=O)CSc2nnc(-c3ccccc3)o2)sc(C(C)=O)c1C`, the Potency is reported as active: 17.8 µM. With `COc1ccc(/C=N/n2c(-c3cccs3)n[nH]c2=S)cc1` the Potency was active: 3.98 µM. In the case of `c1csc(CNc2ncnc3ccc(-c4ccc5c(c4)OCO5)cc23)c1`, the Potency is reported as inconclusive: 15.8 µM [inhibitor, partial curve]. With `Cc1cc2oc(=O)cc(-c3ccccc3)c2c(C)c1-c1ccoc1` the activity change, negative = inhibition was inactive: -6.39%. In the case of `Cc1nnc(N/N=C/c2cccc(OCc3ccc(Cl)c(Cl)c3)c2)n1N`, the activity change, negative = inhibition is reported as inactive: -13.6%. For `Nn1c(Cc2cccc3ccccc23)nnc1SCc1c(Cl)cccc1Cl`, the Potency was active: 7.94 µM. In the case of `Nc1ccc(N=Nc2ccc(-c3ccc(O)cc3)cc2)c2ccc(S(=O)(=O)O)cc12`, the activity change, negative = inhibition is reported as inactive: -7.33%. For `COCC(=O)Nc1ccc(C)c(Cl)c1`, the Potency was active: 14.1 µM. With `CCn1c2ccccc2c2cc(C3C(C#N)=C(N)Oc4n[nH]c(COC)c43)ccc21` (centres undefined) the Potency was inconclusive: 14.1 µM [inhibitor, partial curve]. `Cc1sc2nc3ccc(NCc4ccco4)nn3c(=O)c2c1C` was tested, and the Potency was inconclusive: 20 µM [inhibitor, partial curve]. With `Cc1ccc(/C=C2\OC(=O)c3ccccc32)cc1` the Potency was inconclusive: 20 µM [inhibitor, partial curve, poor fit]. For `N#Cc1c(N2C(=O)Nc3ccccc3N2O)sc2c1CCCCCC2`, the Potency was inconclusive: 17.8 µM [inhibitor, partial curve]. In the case of `COn1c(SC2CCCCC2)nc2ccccc2c1=O`, the Potency is reported as active: 31.6 µM. `O=C(CN1C(=O)/C(=C/c2ccccc2F)Oc2ccccc21)N1CCN(c2ccccn2)CC1` was tested, and the Potency was inconclusive: 15.8 µM [inhibitor, partial curve]. In the case of `CCCn1nc(C(=O)OCC(=O)c2ccc3c(c2)NC(=O)CO3)c2ccccc2c1=O`, the activity change, negative = inhibition is reported as inactive: -12.9%. In the case of `COc1ccc(Nc2cc(=O)oc3ccccc23)cc1`, the Potency is reported as inconclusive: 35.5 µM [inhibitor, single point]. For `Cc1cc(NC(=O)c2noc3c2CCCC3)no1`, the activity change, negative = inhibition was inactive: -7%. With `N=C1/C(=C/c2cccn2-c2ccc([N+](=O)[O-])cc2)C(=O)N=C2SC=CN12` the Potency was inconclusive: 28.2 µM [inhibitor, single point]. In the case of `O=C1c2ccccc2NC(c2cccnc2)N1c1ccccc1F` (centres undefined), the Potency is reported as inconclusive: 31.6 µM [inhibitor, partial curve]. For `Cc1ccc(-c2nc(CSCC(=O)N3CCCC3)c(C)o2)cc1`, the Potency was inconclusive: 14.1 µM [inhibitor, partial curve]. `Cc1ccc(OCCCC(=O)N2CCOCC2)c(C)c1` was tested, and the Potency was active: 20 µM. `C/C(NC(=O)c1ccccc1)=C1/C(=O)CC2C1C2(C)C` (centres undefined) was tested, and the Potency was inconclusive: 35.5 µM [inhibitor, single point]. For `C1=C(CN2CCOCC2)COc2c1cccc2OC[C@@H]1CNCCO1`, the activity change, negative = inhibition was inactive: -5.53%. With `COc1ccc2[nH]c(=O)c(CN(C(=O)c3cccnc3)c3ccc(C)cc3)cc2c1` the Potency was inconclusive: 28.2 µM [inhibitor, partial curve]. With `CC(=O)c1cccc(NC(=O)N2CCC(c3nnc(SCC(N)=O)n3C)CC2)c1` the activity change, negative = inhibition was inactive: -6.2%. For `CN(C)S(=O)(=O)c1ccc(Cl)c(NC(=O)COC(=O)c2cc(-c3ccccc3)nc3ccccc23)c1`, the Potency was inconclusive: 28.2 µM [inhibitor, single point]. For `Cc1nnc(N2C(=O)c3cccc4cccc(c34)C2=O)s1`, the Potency was inconclusive: 15.8 µM [inhibitor, partial curve]. With `COc1ccc(CC(=S)N2CCOCC2)cc1OC` the activity change, negative = inhibition was inactive: -7.54%. With `Cc1c(CCO)c(=O)[nH]n1C(=O)c1c(F)cccc1F` the Potency was inconclusive: 25.1 µM [inhibitor, partial curve]. With `Cc1ccc2oc(-c3ccc(NC(=O)CC(C)C)cc3)nc2c1` the Potency was inconclusive: 15.8 µM [inhibitor, partial curve]. With `COC(=O)Cc1c(C)c2ccc(OCC(=O)N3CCOCC3)cc2oc1=O` the Potency was inconclusive: 28.2 µM [inhibitor, partial curve]. For `O=c1[nH]c(=S)[nH]nc1Cc1ccccc1`, the Potency was active: 28.2 µM. `CCOC(=O)c1ccc(NC(=O)c2cccc(S(=O)(=O)N3c4ccccc4CC3C)c2)s1` (centres undefined) was tested, and the Potency was inconclusive: 35.5 µM [inhibitor, partial curve]. For `O=C1c2ccccc2C(=O)C12OC2c1ccc(Cl)cc1Cl` (centres undefined), the activity change, negative = inhibition was inactive: -18.2%. `Cc1ccc(/C=C/c2ccc(=O)n(Cc3ccccc3Cl)n2)cc1` was tested, and the Potency was inconclusive: 31.6 µM [inhibitor, partial curve]. For `O=C(Nc1ccc(Cl)cc1)c1cccc(N2C(=O)C3C4CCC(C4)C3C2=O)c1` (centres undefined), the Potency was active: 31.6 µM. With `Oc1ccccc1-c1cc(C(F)(F)C(F)F)nc(-c2ccccc2)n1` the activity change, negative = inhibition was inactive: -5.37%. For `CCOc1nc(NC(=O)NC(=O)c2ccccc2)nc(-c2ccccc2)n1`, the activity change, negative = inhibition was inactive: -14.6%. `Oc1ccc(-c2nc3ccccn3c2NCc2ccco2)cc1` was tested, and the Potency was inconclusive: 20 µM [inhibitor, partial curve]. `O=C(NCc1ccco1)c1cc2nc(-c3ccc4c(c3)OCO4)cc(C(F)(F)F)n2n1` was tested, and the Potency was inconclusive: 7.94 µM [inhibitor, partial curve]. `c1ccc(-c2nc(-c3ccco3)n3ccccc23)cc1` was tested, and the Potency was inconclusive: 31.6 µM [inhibitor, partial curve]. `CC(C)CCCC(C)C1CCC2C3CC=C4CC(O)CC[C@@]4(C)C3CC[C@@]12C` (some centres undefined) was tested, and the activity change, negative = inhibition was inactive: -18.9%. For `Cc1cc(-c2n[nH]c(=S)n2/N=C/C(Br)=C/c2ccccc2)n[nH]1`, the Potency was active: 3.98 µM. For `c1ccc2nc(-c3nc4ccccc4[nH]3)ccc2c1`, the Potency was inconclusive: 15.8 µM [inhibitor, partial curve]. `CCSc1nc2c(c(=O)[nH]c(=O)n2C)n1CC(O)COc1ccccc1C` (centres undefined) was tested, and the Potency was active: 14.1 µM. In the case of `CCCCCCC(=O)Nc1ccc(C(=O)N2CCCC2)cc1`, the Potency is reported as active: 3.98 µM. In the case of `O=C(CSc1nc2ccccc2c(=O)[nH]1)c1ccc(O)c(O)c1`, the Potency is reported as active: 15.8 µM. In the case of `O=C(Nc1nncs1)c1ccc(S(=O)(=O)c2ccccc2)cc1`, the activity change, negative = inhibition is reported as inactive: -12.2%. In the case of `COC(=O)c1sc(NC(=O)c2ccc(C)o2)nc1C`, the Potency is reported as inconclusive: 14.1 µM [inhibitor, partial curve]. In the case of `COc1cc2cc(CN(Cc3nnnn3Cc3ccco3)C3CCCCC3)c(=O)[nH]c2cc1OC`, the Potency is reported as inconclusive: 22.4 µM [inhibitor, partial curve]. `COCCCNC(=S)NNC(=S)Nc1ccc(F)cc1F` was tested, and the Potency was inconclusive: 22.4 µM [inhibitor, partial curve, poor fit]. With `Fc1ccc(Cn2c(SCc3ccc(F)c(C(F)(F)F)c3)nnc2C(F)(F)F)cc1` the activity change, negative = inhibition was inactive: -10.3%. For `N#CC1=C(N)Oc2c(ccc3cccnc23)C1c1cccnc1` (centres undefined), the Potency was inconclusive: 25.1 µM [inhibitor, partial curve]. `Cc1ccc(-n2ncc3c(=O)n(-c4ccc(C)c(C)c4)c(-c4ccco4)nc32)cc1` was tested, and the Potency was inconclusive: 20 µM [inhibitor, partial curve]. In the case of `O=C(Nc1nncs1)c1c(F)c(F)c(F)c(F)c1F`, the Potency is reported as active: 22.4 µM. `O=C(CSc1nnnn1-c1ccccc1)Nc1nsc(-c2ccc(Cl)cc2)n1` was tested, and the Potency was inconclusive: 31.6 µM [inhibitor, single point]. With `CN(c1ccccc1)c1nc2ccsc2c(=O)s1` the Potency was active: 28.2 µM. With `Cc1c(C(=O)Nc2cccc(-c3nnc4n3CCCCC4)c2)oc2ccccc12` the Potency was inconclusive: 31.6 µM [inhibitor, partial curve]. In the case of `O=C(O)c1cc2cc(Cl)cc(Cl)c2oc1=O`, the Potency is reported as inconclusive: 35.5 µM [inhibitor, partial curve, poor fit]. For `CCCCCCCCNC(=O)C(CCC(=O)OCc1ccccc1)NC(C)=O` (centres undefined), the Potency was inconclusive: 39.8 µM [inhibitor, single point]. For `C/C(=C\C(=O)Nc1nccs1)c1ccccc1`, the Potency was active: 15.8 µM. With `COc1cc(CN2CCSCC2)cc(OC)c1OC` the activity change, negative = inhibition was inactive: -8.55%. In the case of `CC1(C)CC(=O)c2cnc(N3CCc4ccccc4C3)nc2C1`, the activity change, negative = inhibition is reported as inactive: -20.8%. For `Cc1ccc(OCCOc2ccc(Cl)cc2Cl)c([N+](=O)[O-])n1`, the Potency was active: 31.6 µM. With `Cc1ccc(OCC(=O)N2CCCCC2)c(Br)c1` the Potency was active: 15.8 µM. With `CN1CCN(C(=S)NC(=O)/C=C/c2ccccc2)CC1` the activity change, negative = inhibition was inactive: -3.79%. With `CCN(CC)C(=O)n1cnc(-c2ccccc2)c1-c1ccccc1` the activity change, negative = inhibition was inactive: -31%. In the case of `CCC1OC(=O)C(C)[C@@H](O[C@H]2C[C@@](C)(OC)C(O)C(C)O2)C(C)[C@@H](O[C@@H]2OC(C)CC(N(C)C)C2O)[C@@](C)(O)CC(C)C2NC(COCCOC)O[C@H](C2C)[C@@]1(C)O` (some centres undefined), the activity change, negative = inhibition is reported as inactive: -0.537%. In the case of `COc1cccc(-c2cncnc2NCc2ccccc2)c1`, the Potency is reported as active: 14.1 µM. In the case of `O=C(O)c1ccc(-c2ccccc2C(F)(F)F)s1`, the Potency is reported as inconclusive: 35.5 µM [inhibitor, partial curve]. `Cn1ccc(C(=O)Nc2ccc(Br)cc2Br)n1` was tested, and the Potency was inconclusive: 22.4 µM [inhibitor, partial curve].
